The campaign covered roughly 150,000 compounds. About 540 (0.36%) showed an effect of 50% or more. Some of the results follow.
System: Plasmodium falciparum
Assay: Primary screen in NF54 nanoGlo assay, in single point, at 2uM, 72h; a lower Z score goes with more inhibition
Type: functional, Erythrocyte
Settings: timepoint 72 hour

Going from `Cc1cc(C)nc(N2CC3CCC2C3)n1` (stereo not drawn) to `Cc1nc[nH]c1CN1C[C@H]2CC[C@@H](C1)N(CC(C)(C)N1CCOCC1)C2`, the “% Inhibition” value falls from 3% to -5%.

First: COc1ccc(NC(=O)CN2C(=O)C3CCC(c4ccccc4)CC3C2=O)cc1 (stereo not drawn)
Second: O=C1c2ccccc2N[C@H](c2ccccc2)N1c1ccccn1
The “% Inhibition” value of the first is higher: -5% for the first, -16% for the second.

Compared with `Cc1nccc(N2CCC3(CC2)c2nc[nH]c2CCN3S(C)(=O)=O)n1`, `CCOc1ccc(C(=O)N2CCN(c3ncc(F)cn3)C(=O)C2)cc1` is higher in “% Inhibition” value: -1% for the first, 13% for the second.

First: CCN1CCN(S(=O)(=O)c2ccc(OC)c(C(=O)N3CCCCCC3)c2)CC1
Second: O=C(c1ccoc1)N1CCC[C@H](c2ncc3n2CCCC3)C1
The “% Inhibition” value of the first is higher: -6% for the first, -10% for the second.

First: CC(C)Cc1nc(O)c(C#N)c2c1CCCC2
Second: O=C(O)c1csc(S(=O)(=O)Nc2cccc3c2CCCC3)c1
The “% Inhibition” value of the first is lower: -5% for the first, -2% for the second.

First: C[C@@H]1CN(C(=O)OC(C)(C)C)C[C@H]1C(=O)NCC1(C2CC2)CC1
Second: Cc1onc(C(=O)N2CCCN(CC3CC3)[C@H](C(C)C)C2)c1CO
The “% Inhibition” value of the first is higher: -11% for the first, -20% for the second.

Going from `Clc1ccc(CN2CCC[C@@H]2Cn2cncn2)s1` to `O=C(NC1CCN(Cc2ccccc2)CC1)[C@H]1CCCN(c2cnc3nccnc3c2)C1`, the “% Inhibition” value falls from -6% to -10%.

Going from `CN(C)c1ccc(-c2ccc3nc(C(=O)N4CCCC4)cn3c2)cc1` to `COC(=O)c1ccccc1NC(=O)Cn1cc(-c2ccccc2)c(N(C)C)n1`, the “% Inhibition” value rises from -13% to -5%.

Compared with `CNS(=O)(=O)CCNCc1c(C)cc(C)c(CO)c1C`, `CCc1nccn1CCCNCC[C@@H](C)CCCC(C)(C)O` is lower in “% Inhibition” value: -6% for the first, -8% for the second.

Going from `O=C(c1ccno1)N1CCC(Oc2ccccn2)CC1` to `O=C(CCC(=O)N1CCC(Oc2ccccn2)CC1)c1ccccc1`, the “% Inhibition” value rises from -9% to -8%.

Going from `O=C(Nc1ccn2nccc2c1)c1ccc(F)cc1` to `Cn1ccnc(OC2Cc3ccccc3C2)c1=O`, the “% Inhibition” value rises from -5% to 8%.

First: COc1ccc(NC(=O)[C@H](CC(N)=O)NC(=O)CC(C)C)cc1
Second: O=C(CCOc1ccc(Br)cc1F)NCC(F)(F)F
The “% Inhibition” value of the first is higher: 6% for the first, -13% for the second.

Compared with `Cc1cc(C)nc(N2CC3CCC2C3)n1` (stereo not drawn), `Cc1nc[nH]c1CN1C[C@H]2CC[C@@H](C1)N(CC(C)(C)N1CCOCC1)C2` is higher in Z score: -0.5 for the first, 0.5 for the second.

Compared with `COc1ccc(NC(=O)CN2C(=O)C3CCC(c4ccccc4)CC3C2=O)cc1` (stereo not drawn), `O=C1c2ccccc2N[C@H](c2ccccc2)N1c1ccccn1` is higher in Z score: 0.76 for the first, 2.75 for the second.

Compared with `Cc1nccc(N2CCC3(CC2)c2nc[nH]c2CCN3S(C)(=O)=O)n1`, `CCOc1ccc(C(=O)N2CCN(c3ncc(F)cn3)C(=O)C2)cc1` is lower in Z score: 0.25 for the first, -1.63 for the second.

Going from `CCN1CCN(S(=O)(=O)c2ccc(OC)c(C(=O)N3CCCCCC3)c2)CC1` to `O=C(c1ccoc1)N1CCC[C@H](c2ncc3n2CCCC3)C1`, the Z score rises from 0.69 to 1.62.

First: CC(C)Cc1nc(O)c(C#N)c2c1CCCC2
Second: O=C(O)c1csc(S(=O)(=O)Nc2cccc3c2CCCC3)c1
The Z score of the first is higher: 0.6 for the first, 0.3 for the second.

Compared with `C[C@@H]1CN(C(=O)OC(C)(C)C)C[C@H]1C(=O)NCC1(C2CC2)CC1`, `Cc1onc(C(=O)N2CCCN(CC3CC3)[C@H](C(C)C)C2)c1CO` is lower in Z score: 2.13 for the first, 1.89 for the second.

First: Clc1ccc(CN2CCC[C@@H]2Cn2cncn2)s1
Second: O=C(NC1CCN(Cc2ccccc2)CC1)[C@H]1CCCN(c2cnc3nccnc3c2)C1
The Z score of the first is lower: 0.53 for the first, 1.78 for the second.

Going from `CN(C)c1ccc(-c2ccc3nc(C(=O)N4CCCC4)cn3c2)cc1` to `COC(=O)c1ccccc1NC(=O)Cn1cc(-c2ccccc2)c(N(C)C)n1`, the Z score falls from 1.3 to 0.61.

First: CNS(=O)(=O)CCNCc1c(C)cc(C)c(CO)c1C
Second: CCc1nccn1CCCNCC[C@@H](C)CCCC(C)(C)O
The Z score of the first is higher: 1.27 for the first, 0.74 for the second.

First: O=C(c1ccno1)N1CCC(Oc2ccccn2)CC1
Second: O=C(CCC(=O)N1CCC(Oc2ccccn2)CC1)c1ccccc1
The Z score of the first is higher: 1.73 for the first, 1.57 for the second.

First: O=C(Nc1ccn2nccc2c1)c1ccc(F)cc1
Second: Cn1ccnc(OC2Cc3ccccc3C2)c1=O
The Z score of the first is higher: 0.74 for the first, -1.08 for the second.

First: COc1ccc(NC(=O)[C@H](CC(N)=O)NC(=O)CC(C)C)cc1
Second: O=C(CCOc1ccc(Br)cc1F)NCC(F)(F)F
The Z score of the first is lower: -1.03 for the first, 1.07 for the second.
